According to the supplement of paper PMC11417369:
± gives the standard deviation of the averaged measurements. This is one part of the list.

These sequences were tested on PfAP2-LT AP2 domain (GST-tagged) (assay: gcPBM binding intensity (ln(normalized median fluorescence intensity)); higher = stronger DNA binding).
Procedure, shortened: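 Plasmodium falciparum DNA-binding domains carrying a GST tag were expressed in E. coli and applied for 1 h, at about 25 μg on average, to an Agilent 4 × 180k array. The array held primer-extended double-stranded 36-bp intergenic genomic probes together with negative controls, and binding took place in 1× PBS with 1% milk, 0.2 mg/ml BSA, 0.5% salmon testes DNA and 0.03% Triton X-100. An Alexa488 anti-GST antibody detected bound protein, and the array was scanned at 488 nm. Binding intensity is taken as the highest Masliner-normalised natural-log median intensity across replicate spots of either probe orientation.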

Sequence	gcPBM binding intensity (ln)
AGGAAAATAATTAAAGCATGCTCATTATGAAATATA [TGCATGCA_site855]	8.73 ± 0.47
ACAAATAAAAAAATTACACACATATAAAATATAGAT [CACACA_site6756]	9.06 ± 0.4
TATGAGAACAAACATTGTACAATAAAAAGTAGATAT [XGTACX_site920]	9.13 ± 0.51
CATATAAGAATCTTCTGTACTTATAAGAAAAGACAT [XGTACX_site8135]	8.62 ± 0.46
ATGTAATATGTTCATGCATGTAAAATTACATTTAGA [TGCATGCA_site852]	8.78 ± 0.42
AAAAAAAAAAAAACAACACACAATGTTTTATTTTAC [CACACA_site1613]	8.82 ± 0.41
TAAAACAAAATAACATGTACAAAAAAAAAAAAAAAA [XGTACX_site2915]	8.56 ± 0.52
ATACACAAATGCATACGTACATATATATATATATAT [XGTACX_site3504]	9.87 ± 0.16
TATATATATATATATGTGCACATTTATTGCCTTTGC	10.11 ± 0.071
TATAAATAAAGACTTTTTTCTAACTTTTTTTTGTAT [CACACA_negctrl_site1015]	8.44 ± 0.55
TAAGTATATTTCTGCACACAAAAAAAAAAACCAAAA [CACACA_site4056]	9.08 ± 0.41
AAAATTTAATATGAATGTACATAAAAAAAAAAAAAA [XGTACX_site6719]	8.69 ± 0.38
ATATCTATAATAAACACACAAATAGATATAACATAT [CACACA_site7702]	9.03 ± 0.4
AAAAAAAAATTAAAAACACACATATATATATATATA [CACACA_site1580]	9.73 ± 0.014
AATGAAACAATACCCAGTAAAAAAAAAAAATAAATA [TGCATGCA_negctrl_site205]	8.87 ± 0.55
ATATTTTTTTTCTTCACACACATGAGTTATAAATAA [CACACA_site7498]	8.97 ± 0.51
TGTAATCTGGAGAAGAGTACACAGTATCTGGTAGCT [XGTACX_site4935]	8.87 ± 0.37
ATATATAATATAATATGTACATATAATCAATCCTGT [XGTACX_site8694]	8.97 ± 0.33
ATTTAGTATTCGAAACGTACACATATATATATATAT [XGTACX_site3910]	9.59 ± 0.33

Sequence	gcPBM binding intensity (ln)
AAGGTAAAATATAAGTGTACTTTTTCTTAATCTTCG [XGTACX_site514]	8.57 ± 0.57
TAATATTTATATAATTGTACTTTGTTTGTAAATCCA [XGTACX_site7292]	8.53 ± 0.43
GGACGTATTAAAAGGCGTACACTAAATATTTTATGT [XGTACX_site146]	8.87 ± 0.47
ATTATAATTTTGTAAAGTACATATTATTATATATTA [XGTACX_site7191]	8.49 ± 0.46
AAGATAATTACGCACACACACACACGCCCACAACTA [CACACA_site7255]	10.4 ± 0.12
TATTTATATAATCCTATAATATTACTACTATCTTTA [GTGCAC_negctrl_site342]	8.68 ± 0.47
TGATAACTAAATACATGTACAAATTAAAAAGAAAAA [XGTACX_site3080]	8.86 ± 0.38
TAATGATTATATGACTGTACATTTGTAGGTATAATT [XGTACX_site3373]	8.77 ± 0.33
TTATTTTTTTCAACAAGTACTAATACAAAATAAAAC [XGTACX_site6460]	8.32 ± 0.47
TTGTATTATTAAATTATAAAACCTATAATTATGGAT [GTGCAC_negctrl_site340]	8.35 ± 0.45
GATTAAATCGATAATACACACTAAATGTAAAACATT [CACACA_site4248]	8.95 ± 0.45
TTTAATTAATAATAATATAAATTGTTCTTTTTTTTT [GTGCAC_negctrl_site176]	8.04 ± 0.56
CATATTTATAAATATAAACACACAACATTATATGCA [CACACA_site9065]	8.88 ± 0.4
GCAAAATAAAGAAGCACACAAAAATGAAATATATAT [CACACA_site3651]	9.22 ± 0.44
TATACGTAATAATATGCACACAAATAAACTTTATAA [CACACA_site9166]	9.02 ± 0.38
ATTTATATATATCATACACACTAATATGTATATTAT [CACACA_site5816]	8.97 ± 0.34
ACTAGTAAATTTATATGTACATATATATATATATAG [XGTACX_site2502]	8.97 ± 0.4
AAAAAAAATACATACATACACACATATATATATATA [CACACA_site912]	9.685 ± 0.05
TCTTGGTATATTCAATATATGATTTATATAATTCAA [CACACA_negctrl_site818]	8.55 ± 0.34

Sequence	gcPBM binding intensity (ln)
AATAATTTGAAGGTGATAGTATTACATGGGAAATCA [CACACA_negctrl_site301]	8.7 ± 0.45
ACTCTCTTATATTAAACACACATATATATATGTATA [CACACA_site2703]	8.99 ± 0.42
TCAAACAAAAAAGAAACACACACTAATTAAATTTTC [CACACA_site1101]	9.04 ± 0.34
ATCTTTCGAACATGTACACACAGAAAAAAAAAAAAA [CACACA_site5393]	8.93 ± 0.46
GTGTAGGCAAAAAGTTGTACGCCTAAAATCTATATA [XGTACX_site8912]	8.87 ± 0.46
TAAAAAGTATATGGTCGTACACTTTTGATTAATACA [XGTACX_site7804]	8.6 ± 0.38
TGTATAGGTACAATAATTATAGAGTAATTGACATTA [GTGCAC_negctrl_site183]	8.65 ± 0.47
GTACATATAAATATTACACACATTTTCATTTTTAAC [CACACA_site1986]	9.04 ± 0.42
AAATCGAACAAATTATGTACTAAAAAAAAAATTTAT [XGTACX_site6399]	8.6 ± 0.51
TAGATAAAATTAAAATGTACAAACCTTTTCCCTTAT [XGTACX_site1136]	8.55 ± 0.4
ATATATATATATATATGTACTTATTTATTTTATATA [XGTACX_site8810]	9.45 ± 0.18
TATATATATATAAAGGTGCATATCTTTACGTATGTC [GTGCAC_site9665]	9.26 ± 0.28
ATATATATATATGATACATGCATATATTTTTTCTTC [TGCATGCA_site216]	9.24 ± 0.23
ATTTTATTTTTTAATAGTACTCATTTTTTATGTGAA [XGTACX_site5494]	8.56 ± 0.44
TTTTTTTTATCAAATTGTACATATACAAAGGTGATC [XGTACX_site8054]	8.51 ± 0.43
AGAAATCATCTGAATTGTACTAACAATTTTTTTTAA [XGTACX_site6191]	8.34 ± 0.49
CCCAATAATTAAACAACACACATATATATCTGTAAT [CACACA_site5667]	9.39 ± 0.38
AGGGGCGAAACAAAGGTGCTTTTATAAAATATGTAA	8.69 ± 0.45
ATAAAATGGGCAAACACACACAAAAAAAAGATATAT [CACACA_site1648]	9.53 ± 0.51
